Hit rate of the full screen: of about 48,000 compounds, about 120 (0.25%) were called active. Not shown: some 4% with an inconclusive outcome. The call rests on the fitted dose curve; in most records, active means well fitted activation curve with a large enough effect; inconclusive means small, poorly fitted or top-dose-only effect, or another doubt; inactive means no such curve, though single readings can be large or run the other way. Some of the results follow.
assay: Primary qHTS for Identification of Small Molecule Activators of Huntingtin-Antisense Promoter Activity; details: HEK293 HTT-AS promoter firefly luciferase reporter (activity 0% = vehicle and -100% = no light), 24 h; series mostly up to 57.5 µM; activity change, positive = activation: at the top concentration; further: nearly all actives have a fitted effect of over 55% in size
How it was run: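 Firefly luciferase readout (Dual-Glo, 10 min RT) after 24 h, 37 °C compound exposure (final up to 57.5 uM) of HEK293 reporter cells cultured 24 h beforehand; PTC124 at 50 uM final as control inhibitor; activity scaled vehicle 0%, zero RLU -100%.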

Activity change, positive = activation, inactive:
CC(=O)Nc1ccc(NC(=O)CSc2nccn2Cc2ccc3c(c2)OCO3)cc1 -11.6%
COc1cc(NC(=O)CSc2ncc3c(n2)-c2ccc(Cl)cc2N(Cc2ccccc2)S3(=O)=O)cc(OC)c1 1.9%
O=C1CSC2(C(=O)N(Cc3ccccc3F)c3ccccc32)N1c1cccc(C(F)(F)F)c1 (stereo not given) -41.8%
O=C(Cn1ncc2c3ccccc3n(Cc3ccc(Cl)cc3)c2c1=O)NCCC1=CCCCC1 -7.73%
CN(C)CCNC(=O)C1CCN(c2ncnc3c2nc2n3CCCCC2)CC1 -8.59%
CCCn1c2ccccc2c2cnn(CC(=O)NCCCN3CCCCC3)c(=O)c21 -10.2%
CCOc1ccc(NC(=O)c2sc3nc4c(c(-c5ccccc5)c3c2N)C(=O)CC(C)(C)C4)cc1 -7.34%
O=C(NCCc1ccccc1)c1ccc2nc(N3CCCCC3)sc2c1 -42.8%
CCOc1cc(C2C(C(=O)OC)=C(C)NC3=C2C(=O)c2ccccc23)ccc1OC (stereo not given) -25%
OCC(O)CS (stereo not given) -0.166%
Cc1ccccc1NC(=O)c1cn(-c2ccccc2)nc1-c1ccccc1 -16.4%
CCc1cc(-c2n[nH]c(C)c2-c2ccc3c(c2)OCCO3)c(O)cc1O -44.7%
O=S(=O)(NCC(c1ccco1)N1CCOCC1)c1ccc(Br)cc1 (stereo not given) -13.6%
Cc1ccccc1-c1ccnc2[nH]n(-c3ccccc3)c(=O)c12 -10.4%
COc1ccc(OC)c(CN2CCN(S(=O)(=O)c3ccccc3)CC2)c1 -1.46%
Cc1ccc2oc(C(=O)N(Cc3ccc(N(C)C)cc3)CC3CCCO3)c(C)c2c1 (stereo not given) -24.3%
CCOC(=O)c1c(NC(=O)CSc2cn(CCNC(=O)c3cccc(C(F)(F)F)c3)c3ccccc23)sc2c1CCC2 2.02%
COc1ccccc1C(=O)Nc1cccc(C(=O)OCc2cc(=O)n3nc(C4CC4)sc3n2)c1 -21.5%
O=C(Nc1ccc(OC(F)(F)F)cc1)C(Cc1ccccc1)NS(=O)(=O)c1cccc2nsnc12 (stereo not given) -30.2%
CC1CCCN(CCCNC(=O)c2ccc3c(c2)N(Cc2cccc(Cl)c2)C(=O)c2ccccc2S3(=O)=O)C1 (stereo not given) -19.2%
CC(C)Cc1nn2c(=O)cc(COC(=O)CNC(=O)c3ccc(C(C)(C)C)cc3)nc2s1 0.968%
Cc1ccc(C)c(CNC(=O)c2ccc3c(c2)nc2n3CCOC2)c1 -7.4%
COC(=O)c1ccc(C2c3c(oc4ccc(C)cc4c3=O)C(=O)N2Cc2ccc3c(c2)OCO3)cc1 (stereo not given) -15%
COc1cccc(CNC(=O)Cn2ccc3cc(S(=O)(=O)N4CCCC4)ccc32)c1OC -26.6%
COc1ncc(-c2ccc3nccc(-c4ccnnc4)c3c2)cc1NS(=O)(=O)c1ccc(F)cc1F -36.2%
Cc1ccc(S(=O)(=O)c2nnn3c2nc(NCc2ccc4c(c2)OCO4)c2sccc23)cc1 -33.3%
CCOC(=O)c1c(Nc2ccc(O)cc2)nnc(-c2ccccc2)c1-c1ccccc1 -18.9%
O=C(Cc1ccccc1)Nc1c(C(=O)c2ccccc2)oc2ccccc12 -5.07%
COc1ccc(CNC(=O)c2cc3cc4ccc(C)cc4nc3o2)cc1 1.06%
CCc1ccc(C(=O)COC(=O)C(Cc2c[nH]c3ccccc23)NC(=O)c2ccc(CC)cc2)cc1 (stereo not given) 4.37%
Cc1ccc(NC(=O)CSc2nnc(-c3nnn(-c4ccc(F)cc4)c3C)o2)cc1Br -0.624%
Cc1nc(-c2cccc(F)c2)sc1CCNC(=O)c1c(F)cccc1Cl -14.1%
CCCCn1c(=NC(=O)C(C)(C)Oc2ccc(Cl)cc2)c(C(=O)OCC)cc2c(=O)n3ccccc3nc21 -14.2%
COc1cccc(N2CCN(C(=O)c3cc4c(s3)-c3c(C)cccc3OC4)CC2)c1 -1.45%
COC(=O)Nc1nc2ccc(C(=O)c3ccc(F)cc3)cc2[nH]1 -23.3%
Cc1ccc(OCC(=O)Nc2nonc2-c2ccc(C)c(C)c2)cc1C 6.98%
Cc1ccc(NC(=O)CN2C(=O)COc3ccc(S(=O)(=O)N4CCCCCC4)cc32)cc1Cl -42.8%
CCC(Sc1nc(-c2ccccc2)[nH]c1S(=O)(=O)c1ccc(C)cc1)C(=O)O (stereo not given) -5.63%
O=C(NCCCN1CCN(c2ccc(F)cc2)CC1)c1cc2c(Cl)nc3ccccc3c2s1 -10.3%
Cc1cc(=O)n(Cc2ccc(F)cc2Cl)c2c1c(C)nn2C -20.9%
CC(C)c1ccc(-c2noc(SCC(=O)N3CCCCC3C)n2)cc1 (stereo not given) 5.28%
Cc1cc(C)cc(OC(=O)c2cc(-c3ccc(Cl)cc3)on2)c1 0.668%
Cc1cccc(-c2nc(CCNC(=O)c3ccc(Br)o3)cs2)c1 -17%
Cc1cc(C)cc(NC(=O)c2ccc3oc(=O)c(S(=O)(=O)c4ccc(F)cc4)cc3c2)c1 -52.8%
COc1ccc(N2CCN(C(=O)C3CCN(S(=O)(=O)c4cccc5nonc45)CC3)CC2)cc1 -29.5%
CCN1CCN(CCCNC(=O)CS(=O)(=O)Cc2nc(-c3ccccc3C)oc2C)CC1 -16.1%
CC(C)CN(C[C@H](O)[C@H](Cc1ccccc1)NC(=O)O[C@H]1CCOC1)S(=O)(=O)c1ccc(N)cc1 -5.02%
Cc1ccc(-c2nnc(Nc3ccc(C(N)=O)cc3)c3ccccc23)cc1S(N)(=O)=O -8.72%
COc1ccc(NC(=O)Cn2c(=O)c3cccn3c3ccccc32)cc1Cl -14.3%
COc1cccc2sc(NC(=O)c3ccc(S(=O)(=O)N4CCC(C)CC4)cc3)nc12 -45.5%
CCOC(=O)c1noc2ncnc(Nc3cc(Cl)c(OC)cc3OC)c12 0.706%
COc1ccc(C)cc1NC(=O)Nc1cc(C(=O)NCc2ccc(C)cc2)ccc1N1CCCC1 3.09%
COc1ccc(-c2nc3sc(CCNC(=O)Cc4ccc(F)cc4)c(C)n3n2)cc1 12%
Cc1sc(-c2cc3ccccc3oc2=O)nc1-c1ccc(Cl)c(Cl)c1 9.7%
Cc1nnc(N2CCCC(C(=O)NCCN(C)C)C2)c2nn(-c3ccccc3)c(C)c12 (stereo not given) 11.3%
CCOc1ccc(CNCc2c(C(=O)O)c(C)n(Cc3ccc(C)cc3)c2C)cc1 -16.7%
CCOc1ccccc1OCCCCn1c(-c2ccc(Cl)cc2)nc2ccccc2c1=O -12.2%
COc1cc(Cl)c(NC(=O)CCc2nc3cccnc3n2-c2ccccc2)c(OC)c1 -22.4%
CC(=O)Nc1c(C)nn(-c2ccccc2)c1N1CCC(C(=O)NCc2cccc(Cl)c2)CC1 16.9%
O=C(CSc1nc2cc3ccccc3cc2[nH]1)Nc1ccc(F)cc1 -7.94%

Reference: PubChem BioAssay AID1508624 (National Center for Advancing Translational Sciences (NCATS), 2021)
